Assay results as given in patent publication US20240076343A1.

What was measured:
Experiment in all cases: cell-based or functional assay
[1] = biological target: high-affinity hIL-2 receptor (IL-2Rαβγ) (human) (UniProt P01589)
[2] = biological target: high-affinity hIL-2 receptor (IL-2Rαβγ) on NK-92 cells (human) (UniProt P01589)
[3] = biological target: intermediate affinity hIL-2 receptor (hIL-2Rβγ) on TF1+IL-2Rβ cells (human) (UniProt P14784)
[4] = biological target: intermediate affinity hIL-2 receptor complex (IL-2Rβγ) (human) (UniProt P14784)
[5] = biological target: intermediate affinity hIL-2 receptor complex (IL-2Rβγ) on TF1+IL-2Rβ cells (human) (UniProt P14784)

Row | Binder | Fold change from rhIL-2 (NK-92), pSTAT5 titration [1] [fold] | Fold change from hIL-2 (NK-92) [2] [fold] | Fold change from rhIL-2 (NK-92) [2] [fold] | Agonistic Activity (TF1 + IL-2Rβ) [3] [%] | Fold change from rhIL-2 (TF1 + IL-2Rβ) [3] [fold] | Fold change from rhIL-2 (TF1 + IL-2Rβ), pSTAT5 titration [4] [fold] | Fold change from hIL-2 (TF1 + IL-2Rβ) [5] [fold] | Agonistic Activity (NK-92), pSTAT5 titration [1] [%] | Agonistic Activity (NK-92) [2] [%] | Agonistic Activity (TF1 + IL-2Rβ), pSTAT5 titration [4] [%]
1 | 1H3-hIgG1-L6-hIL-2 (D20A/E95A/R38D) (protein) heavy: EVQLVESGGGLVQPGRSLKLSCAVSGFTFSDYAMAWVRQAPKKGLEWVATISYDGSRTYYRDSVKGRFTISRDNAKITLYLQMDSLRSEDTATYYCARHGSGYFDYWGQGVMVTVSS[not shown - human IgG1 constant region]SGGGGSAPTSSSTKKTQLQLEHLLLALQMILNGINNYKNPKLTDMLTFKFYMPKKATELKHLQCLEEELKPLEEVLNLAQSKNFHLRPRDLISNINVIVLALKGSETTFMCEYADETATIVEFLNRWITFCQSIISTLT light: DTVLTQSPALAVSPGERVTISCRASESVRTGVHWYQQKPGQQPKLLIYGASNLESGVPARFSGSGSGTDFTLTIDPVEADDTATYFCQQSWNDPFTFGSGTKLEIKRTVAAPSVFIFPPSDEQLKSGTASVVCLLNNFYPREAKVQWKVDNALQSGNSQESVTEQDSKDSTYSLSSTLTLSKADYEKHKVYACEVTHQGLSSPVTKSFNRGEC | > 10000 | 21 | 5320 | 80 | 492 |  | 6 | 60 to 70 | 50 | 
2 | 1H3-hIgG1-L6-hIL-2 (R38D/I92D) (protein) heavy: EVQLVESGGGLVQPGRSLKLSCAVSGFTFSDYAMAWVRQAPKKGLEWVATISYDGSRTYYRDSVKGRFTISRDNAKITLYLQMDSLRSEDTATYYCARHGSGYFDYWGQGVMVTVSS[not shown - about 450 residues with a human IgG1 Fc and changes] light: DTVLTQSPALAVSPGERVTISCRASESVRTGVHWYQQKPGQQPKLLIYGASNLESGVPARFSGSGSGTDFTLTIDPVEADDTATYFCQQSWNDPFTFGSGTKLEIKRTVAAPSVFIFPPSDEQLKSGTASVVCLLNNFYPREAKVQWKVDNALQSGNSQESVTEQDSKDSTYSLSSTLTLSKADYEKHKVYACEVTHQGLSSPVTKSFNRGEC | > 10000 | 15 | 746 |  | 172 | 338 | 2 | 80 | 90 | 80
3 | 1H3-hIgG1-L6-hIL-2 (D20A/E95A/F42A) (protein) heavy: EVQLVESGGGLVQPGRSLKLSCAVSGFTFSDYAMAWVRQAPKKGLEWVATISYDGSRTYYRDSVKGRFTISRDNAKITLYLQMDSLRSEDTATYYCARHGSGYFDYWGQGVMVTVSS[not shown - human IgG1 constant region]SGGGGSAPTSSSTKKTQLQLEHLLLALQMILNGINNYKNPKLTRMLTAKFYMPKKATELKHLQCLEEELKPLEEVLNLAQSKNFHLRPRDLISNINVIVLALKGSETTFMCEYADETATIVEFLNRWITFCQSIISTLT light: DTVLTQSPALAVSPGERVTISCRASESVRTGVHWYQQKPGQQPKLLIYGASNLESGVPARFSGSGSGTDFTLTIDPVEADDTATYFCQQSWNDPFTFGSGTKLEIKRTVAAPSVFIFPPSDEQLKSGTASVVCLLNNFYPREAKVQWKVDNALQSGNSQESVTEQDSKDSTYSLSSTLTLSKADYEKHKVYACEVTHQGLSSPVTKSFNRGEC |  | 21 | 369 | 90 | 73 |  | 5 | 90 | 70 | 
4 | 1H3-hIgG1-L6-hIL-2 (R38E/I92D) (protein) heavy: EVQLVESGGGLVQPGRSLKLSCAVSGFTFSDYAMAWVRQAPKKGLEWVATISYDGSRTYYRDSVKGRFTISRDNAKITLYLQMDSLRSEDTATYYCARHGSGYFDYWGQGVMVTVSS[not shown - about 450 residues with a human IgG1 Fc and changes] light: DTVLTQSPALAVSPGERVTISCRASESVRTGVHWYQQKPGQQPKLLIYGASNLESGVPARFSGSGSGTDFTLTIDPVEADDTATYFCQQSWNDPFTFGSGTKLEIKRTVAAPSVFIFPPSDEQLKSGTASVVCLLNNFYPREAKVQWKVDNALQSGNSQESVTEQDSKDSTYSLSSTLTLSKADYEKHKVYACEVTHQGLSSPVTKSFNRGEC | > 10000 | 15 | 1610 |  | 116 | 51 | 2 | 70 |  | 80
5 | 1H3-hIgG1-L6-hIL-2 (Δ1-3APT/D20A/R38E) (protein) heavy: EVQLVESGGGLVQPGRSLKLSCAVSGFTFSDYAMAWVRQAPKKGLEWVATISYDGSRTYYRDSVKGRFTISRDNAKITLYLQMDSLRSEDTATYYCARHGSGYFDYWGQGVMVTVSS[not shown - human IgG1 constant region]SGGGGSSSSTKKTQLQLEHLLLALQMILNGINNYKNPKLTEMLTFKFYMPKKATELKHLQCLEEELKPLEEVLNLAQSKNFHLRPRDLISNINVIVLELKGSETTFMCEYADETATIVEFLNRWITFCQSIISTLT light: DTVLTQSPALAVSPGERVTISCRASESVRTGVHWYQQKPGQQPKLLIYGASNLESGVPARFSGSGSGTDFTLTIDPVEADDTATYFCQQSWNDPFTFGSGTKLEIKRTVAAPSVFIFPPSDEQLKSGTASVVCLLNNFYPREAKVQWKVDNALQSGNSQESVTEQDSKDSTYSLSSTLTLSKADYEKHKVYACEVTHQGLSSPVTKSFNRGEC |  | 13 |  | 90 | 32 | 6 | 1 |  |  | 

More lines, now with the values ahead:

Row | Fold change from rhIL-2 (NK-92), pSTAT5 titration [1] [fold] | Fold change from hIL-2 (NK-92) [2] [fold] | Fold change from rhIL-2 (NK-92) [2] [fold] | Agonistic Activity (TF1 + IL-2Rβ) [3] [%] | Fold change from rhIL-2 (TF1 + IL-2Rβ) [3] [fold] | Fold change from rhIL-2 (TF1 + IL-2Rβ), pSTAT5 titration [4] [fold] | Fold change from hIL-2 (TF1 + IL-2Rβ) [5] [fold] | Agonistic Activity (NK-92), pSTAT5 titration [1] [%] | Agonistic Activity (NK-92) [2] [%] | Agonistic Activity (TF1 + IL-2Rβ), pSTAT5 titration [4] [%] | Binder
6 | 52 | 6 | 5 | 80 | 8080 | 2160 | 4 |  |  |  | 1H3-hIgG1-L6-hIL-2 (D20Y/H16E) (protein) heavy: EVQLVESGGGLVQPGRSLKLSCAVSGFTFSDYAMAWVRQAPKKGLEWVATISYDGSRTYYRDSVKGRFTISRDNAKITLYLQMDSLRSEDTATYYCARHGSGYFDYWGQGVMVTVSS[not shown - about 450 residues with a human IgG1 Fc and changes] light: DTVLTQSPALAVSPGERVTISCRASESVRTGVHWYQQKPGQQPKLLIYGASNLESGVPARFSGSGSGTDFTLTIDPVEADDTATYFCQQSWNDPFTFGSGTKLEIKRTVAAPSVFIFPPSDEQLKSGTASVVCLLNNFYPREAKVQWKVDNALQSGNSQESVTEQDSKDSTYSLSSTLTLSKADYEKHKVYACEVTHQGLSSPVTKSFNRGEC
7 | 3720 | 19 | 572 | 80 | 859 |  | 6 | 70 |  |  | 1H3-hIgG1-L6-hIL-2 (D20A/E95A/R38Q) (protein) heavy: EVQLVESGGGLVQPGRSLKLSCAVSGFTFSDYAMAWVRQAPKKGLEWVATISYDGSRTYYRDSVKGRFTISRDNAKITLYLQMDSLRSEDTATYYCARHGSGYFDYWGQGVMVTVSS[not shown - human IgG1 constant region]SGGGGSAPTSSSTKKTQLQLEHLLLALQMILNGINNYKNPKLTQMLTFKFYMPKKATELKHLQCLEEELKPLEEVLNLAQSKNFHLRPRDLISNINVIVLALKGSETTFMCEYADETATIVEFLNRWITFCQSIISTLT light: DTVLTQSPALAVSPGERVTISCRASESVRTGVHWYQQKPGQQPKLLIYGASNLESGVPARFSGSGSGTDFTLTIDPVEADDTATYFCQQSWNDPFTFGSGTKLEIKRTVAAPSVFIFPPSDEQLKSGTASVVCLLNNFYPREAKVQWKVDNALQSGNSQESVTEQDSKDSTYSLSSTLTLSKADYEKHKVYACEVTHQGLSSPVTKSFNRGEC
8 |  | 13 | 80 | 70 | 1880 |  | 6 | 80 to 90 | 90 |  | 1H3-hIgG1-L6-hIL-2 (D20A/E95A/K43E) (protein) heavy: EVQLVESGGGLVQPGRSLKLSCAVSGFTFSDYAMAWVRQAPKKGLEWVATISYDGSRTYYRDSVKGRFTISRDNAKITLYLQMDSLRSEDTATYYCARHGSGYFDYWGQGVMVTVSS[not shown - human IgG1 constant region]SGGGGSAPTSSSTKKTQLQLEHLLLALQMILNGINNYKNPKLTRMLTFEFYMPKKATELKHLQCLEEELKPLEEVLNLAQSKNFHLRPRDLISNINVIVLALKGSETTFMCEYADETATIVEFLNRWITFCQSIISTLT light: DTVLTQSPALAVSPGERVTISCRASESVRTGVHWYQQKPGQQPKLLIYGASNLESGVPARFSGSGSGTDFTLTIDPVEADDTATYFCQQSWNDPFTFGSGTKLEIKRTVAAPSVFIFPPSDEQLKSGTASVVCLLNNFYPREAKVQWKVDNALQSGNSQESVTEQDSKDSTYSLSSTLTLSKADYEKHKVYACEVTHQGLSSPVTKSFNRGEC
9 | > 10000 | 21 | > 10000 | 90 | 439 |  | 5 | 70 to 90 |  |  | 1H3-hIgG1-L6-hIL-2 (D20A/E95A/R38E) (protein) heavy: EVQLVESGGGLVQPGRSLKLSCAVSGFTFSDYAMAWVRQAPKKGLEWVATISYDGSRTYYRDSVKGRFTISRDNAKITLYLQMDSLRSEDTATYYCARHGSGYFDYWGQGVMVTVSS[not shown - human IgG1 constant region]SGGGGSAPTSSSTKKTQLQLEHLLLALQMILNGINNYKNPKLTEMLTFKFYMPKKATELKHLQCLEEELKPLEEVLNLAQSKNFHLRPRDLISNINVIVLALKGSETTFMCEYADETATIVEFLNRWITFCQSIISTLT light: DTVLTQSPALAVSPGERVTISCRASESVRTGVHWYQQKPGQQPKLLIYGASNLESGVPARFSGSGSGTDFTLTIDPVEADDTATYFCQQSWNDPFTFGSGTKLEIKRTVAAPSVFIFPPSDEQLKSGTASVVCLLNNFYPREAKVQWKVDNALQSGNSQESVTEQDSKDSTYSLSSTLTLSKADYEKHKVYACEVTHQGLSSPVTKSFNRGEC
